Reference: US20230257424A1 (NATIONAL RESEARCH COUNCIL OF CANADA, published 2023)

Target: T1, naturally produced Aß aggregates (amyloid deposits) in AD-Tg mouse brain (human, UniProt P05067 partial chain)
T1 construct: Target in brain sections or in the living brain; aggregated deposits of unstated composition; also called Aß deposits; endogenous Aß deposits
Assay: immunohistochemistry on AD-transgenic (APP/PS1) mouse brain sections, detection with anti-FC5-HRP
Description: Immunohistochemistry was carried out as described in Example 3. Brain sections from AD-transgenic mice were incubated with FC5(H3)-hFc1X7-ABP (ABP, SEQ ID NO: 36) and the bound fusion molecule was visualized with HRP-conjugated FC5-specific antibody. As a negative control, sections were incubated with either no construct, or FC5-hFc construct without fused ABP. Briefly, Formalin-fixed 40 μm free-floating sections containing cortex and hippocampus from APP/PS1 transgenic mouse were subjected to antigen retrieval in 10 mM sodium citrate buffer (pH 9) at 80° C. for 30 minutes then cooled to room temperature. Sections were rinsed in PBS, treated with 3% H₂O₂ in PBS for 30 minutes to block endogenous peroxidase, then rinsed again. Following a one hour incubation in Dako serum free protein block containing 0.3% triton X-100, sections were incubated with FC5(H3)-hFc1x7-ABP or the molar equivalent of FC5-hFc1x7 in Dako diluent containing 0.3% triton X-100 for 90 minutes at room temperature. After thoroughly rinsing in PBS, the sections were incubated with anti-FC5-HRP in Dako diluent for 60 minutes at room temperature, rinsed again, and then developed using Vector Immpact DAB following the kit directions. […]

T1 sequence (P05067 672-713): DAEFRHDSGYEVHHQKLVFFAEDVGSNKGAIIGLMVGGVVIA

B1: FC5(H3)-hFc1X7 without ABP (Fc fusion)
chain: EVQLVESGGGLVQPGGSLRLSCAASGFKITHYTMGWFRQAPGKGLEFVSRITWGGDNTFYSNSVKGRFTISRDNSKNTVYLQMNSLRAEDTAVYYCAAGSTSTATPLRVDYWGQGTLVTVSSA[skipping human IgG1 Fc with C220S D270G (EU numbers)]
notes: also called FC5-hFc1x7; FC5-hFc construct without fused ABP
  binding result: no binding (tested: molar equivalent of FC5-hFc1x7)
